{
  "source": "PubChem BioAssay AID504466",
  "about": "(National Center for Advancing Translational Sciences (NCATS), 2011)",
  "note": "Among all 330,000 compounds or so, about 4,200 (1.3%) were called active. This list was built around the results that the source calls inconclusive (neither active nor inactive); the mix of calls is not that of the screen. Calls come from the whole dose curve; as a rule, active = well fitted activation curve with a large enough effect; inconclusive = small, poorly fitted or top-dose-only effect; inactive = no such curve, though single readings can be large or run the other way. Where the call is inconclusive, the potency comes from a doubtful curve fit. Potency is the fitted concentration of half-maximal effect; tags give direction and shape of the fitted curve.",
  "data": [
    {"test": "qHTS screen for small molecules that induce genotoxicity in human embryonic kidney (HEK293T) cells expressing luciferase-tagged ELG1; note: nearly all actives have a fitted effect of over 60% in size; for activity change, positive = activation: % of control where 0% means no effect", "settings": "HEK293T ELG1-luciferase reporter, luminescence, 16 h; series mostly up to 46 µM; activity change, positive = activation: at the top concentration", "in_short": "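DMSO vehicle served as control against compound-treated ELG1-luciferase HEK293T cells; exposure lasted 16 hr at 37 °C and 5% CO2, followed by ONE-Glo luminescence detection after 30 min.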", "values": [
      {"molecule": "O=C(Cc1ccc(F)cc1)Nc1cccc(-c2ccc3nncn3n2)c1", "activity change, positive = activation": "inactive: -4.7%"},
      {"molecule": "COc1ccc(CNC(=O)c2cnc3cc(C)ccn3c2=O)cc1", "Potency": "inconclusive: 29.1 µM [activator, partial curve, poor fit]"},
      {"molecule": "COc1ccc2nc(NC(=O)c3cc(C)oc3C)sc2c1", "Potency": "inconclusive: 8.2 µM [activator, partial curve]"},
      {"molecule": "O=C(CN1CCN(Cc2ccc3c(c2)OCO3)CC1)NCC(F)(F)F", "activity change, positive = activation": "inactive: -0.256%"},
      {"molecule": "Cc1ccc(/C=N/N2CCN(c3ccccn3)CC2)cc1", "Potency": "inconclusive: 20.6 µM [activator, single point]"},
      {"molecule": "NC(=O)C1CCN(C(=O)c2ccccc2SCC(=O)NCC2CCCCC2)CC1", "Potency": "inconclusive: 4.11 µM [activator, single point]"},
      {"molecule": "COc1cc(/C=C(\\C#N)c2nc3ccccc3[nH]2)ccc1OC(=O)c1ccco1", "Potency": "inconclusive: 20.6 µM [activator, partial curve]"},
      {"molecule": "CCc1ccc2nc(N(CCN(C)C)C(=O)/C=C/c3cccs3)sc2c1", "activity change, positive = activation": "inactive: -1.97%"},
      {"molecule": "O=C(Nc1nnc(CC2=CCCCC2)s1)c1cccs1", "Potency": "active: 14.6 µM"},
      {"molecule": "CC(=O)Nc1ccc(Oc2ccc3nc(C)[nH]c3c2)cc1", "activity change, positive = activation": "inactive: 1.8%"},
      {"molecule": "Cc1ccc(S(=O)(=O)Nc2nc3ccccc3nc2NCc2ccco2)cc1", "Potency": "inconclusive: 18.4 µM [activator, partial curve, poor fit]"},
      {"molecule": "Cc1ccc(C2NC(=O)NC3=C2CCc2ccccc23)cc1", "note": "(stereo unspecified)", "Potency": "inconclusive: 16.4 µM [activator, single point]"},
      {"molecule": "Cc1ccc(C2NC(=O)c3ccccc3N2)s1", "note": "(stereo unspecified)", "Potency": "active: 18.4 µM"},
      {"molecule": "COc1ccccc1NC(=O)N1CCN(c2cc(-c3ccccc3)nc3ncnn23)CC1", "activity change, positive = activation": "inactive: -13.7%"},
      {"molecule": "COc1ccc(/C=C/C(=O)c2ccc3c(c2)OCO3)c(OC)c1", "Potency": "active: 5.8 µM"},
      {"molecule": "O=C(COC(=O)c1ccccc1Br)Nc1cccnc1Cl", "activity change, positive = activation": "inactive: 4.33%"},
      {"molecule": "O=C(N/N=C/c1ccc(Br)cc1)c1ccc(F)cc1", "Potency": "inconclusive: 10.3 µM [activator, partial curve, poor fit]"},
      {"molecule": "O=c1cc(-c2ccc(O)cc2)oc2cc(O)c(C3OC(CO)C(O)C(O)C3O)c(O)c12", "note": "(stereo unspecified)", "Potency": "inconclusive: 18.3 µM [activator, partial curve, poor fit]"},
      {"molecule": "O=C1/C(=C/c2cccs2)CCC1C1CCCC1", "note": "(stereo unspecified)", "Potency": "inconclusive: 4.11 µM [activator, single point]"},
      {"molecule": "O=C(COc1ccc2c(c1)CCC2)Nc1ccccn1", "Potency": "inconclusive: 0.58 µM [activator, partial curve]"},
      {"molecule": "O=C(NC(=S)Nc1ccc(Br)cc1)C1CCC1", "Potency": "inconclusive: 16.4 µM [activator, partial curve, poor fit]"},
      {"molecule": "O=[N+]([O-])c1ccc2nc(-c3ccccc3)[nH]c2c1", "Potency": "inconclusive: 4.11 µM [activator, full curve]"},
      {"molecule": "COc1ccc(C2=NN(CN3C(=O)C(=O)c4ccccc43)C(c3ccc(OC)cc3)C2)cc1", "note": "(stereo unspecified)", "Potency": "inconclusive: 20.6 µM [activator, partial curve, poor fit]"},
      {"molecule": "COc1ccc(NC(=O)C2CCC2)cc1S(=O)(=O)Nc1cc(C)ccc1Br", "activity change, positive = activation": "inactive: -9.22%"},
      {"molecule": "COc1ccc(/C=C(/NC(=O)c2ccc(OC)c(OC)c2)C(=O)NCCCn2ccnc2)cc1", "activity change, positive = activation": "inactive: 0.68%"},
      {"molecule": "N#CCCN(Cc1cccs1)C(=O)c1ccc(Cl)cc1", "activity change, positive = activation": "inactive: -2.27%"},
      {"molecule": "C(=N\\Nc1nc(-c2ccccc2)cs1)/c1cccs1", "Potency": "active: 16.4 µM"},
      {"molecule": "O=C(CSc1nnc(-c2cccnc2)o1)Nc1cccc(F)c1", "Potency": "inconclusive: 16.4 µM [activator, partial curve, poor fit]"},
      {"molecule": "COc1ccc(OC)c(NC(=O)c2cc3ccccc3o2)c1", "Potency": "inconclusive: 29.1 µM [activator, partial curve, poor fit]"},
      {"molecule": "COC(=O)c1ccc(N=NN2CCOCC2)cc1", "Potency": "inconclusive: 11.6 µM [activator, partial curve]"},
      {"molecule": "Cc1nnc(NC(=O)CSc2ncnc3c2cnn3-c2ccccc2C)s1", "Potency": "inconclusive: 29.1 µM [activator, single point]"},
      {"molecule": "Cc1ccc(C)c(OCC(=O)Nc2cccc(C(=O)O)c2)c1C", "Potency": "inconclusive: 10.3 µM [activator, partial curve]"},
      {"molecule": "O=C(Nc1ccccc1)OC1CC2CC1C1CCCC21", "note": "(stereo unspecified)", "Potency": "inconclusive: 9.2 µM [activator, partial curve, poor fit]"},
      {"molecule": "COc1ccc(C2C(C(C)=O)=C(O)C(=O)N2CCCn2ccnc2)cc1", "note": "(stereo unspecified)", "activity change, positive = activation": "inactive: -1.39%"},
      {"molecule": "CC1(C)O[C@@H]2C[C@H]3[C@@H]4C[C@H](F)C5=CC(=O)C=C[C@]5(C)[C@H]4[C@@H](O)C[C@]3(C)[C@]2(C(=O)CO)O1", "Potency": "inconclusive: 0.651 µM [activator, partial curve, poor fit]"},
      {"molecule": "OCC1CCCN(C(=S)Nc2ccc(OC(F)F)cc2)C1", "note": "(stereo unspecified)", "Potency": "inconclusive: 18.4 µM [activator, partial curve, poor fit]"},
      {"molecule": "CC1(C)Cc2c(cnn2-c2ccc(F)cc2)C(NC(=O)CCn2cncn2)C1", "note": "(stereo unspecified)", "Potency": "inconclusive: 18.3 µM [activator, partial curve, poor fit]"},
      {"molecule": "Cc1cccc(Nc2nnc(SCC(=O)Nc3ccccc3[N+](=O)[O-])s2)c1", "activity change, positive = activation": "inactive: -4.57%"},
      {"molecule": "CCCNC(=O)Nc1ccc2c(c1)nc(C)n2C", "Potency": "inconclusive: 23.1 µM [activator, partial curve, poor fit]"},
      {"molecule": "CC(=O)N1CCN(C(=O)c2ccc3oc(CCCc4ccccc4)nc3c2)CC1", "activity change, positive = activation": "inactive: -0.154% [at 9.26 µM]"},
      {"molecule": "COc1cc(/C=N/NC(=O)c2ccccn2)ccc1OC(=O)c1ccc(Br)cc1", "Potency": "inconclusive: 14.6 µM [activator, partial curve]"},
      {"molecule": "COc1ccc(C(=O)Nc2nnc(S(=O)(=O)N3CCOCC3)s2)cc1", "activity change, positive = activation": "inactive: 1.65%"},
      {"molecule": "CCCCCCCCCCS(=O)(=O)N/N=C/c1ccc([N+](=O)[O-])cc1", "activity change, positive = activation": "inactive: -0.0816%"},
      {"molecule": "COc1ccc2oc(=O)c(C(=O)Nc3ccccc3C)cc2c1", "Potency": "inconclusive: 2.59 µM [activator, full curve]"},
      {"molecule": "CN(C)c1ccc(-c2nn3c(-c4cccnc4)nnc3s2)cc1", "Potency": "inconclusive: 18.4 µM [activator, partial curve]"},
      {"molecule": "O=C(/C=C/c1ccco1)NC(=S)Nc1cccc(C(=O)O)c1", "Potency": "inconclusive: 23.1 µM [activator, single point]"},
      {"molecule": "CCN(Cc1ccncc1)C(=O)C1CCC(=O)N(Cc2ccc(Cl)cc2)C1", "note": "(stereo unspecified)", "activity change, positive = activation": "inactive: 5.63%"},
      {"molecule": "C=CCn1c(SCC(=O)Nc2cc(C)on2)nc2c([nH]c3ccccc32)c1=O", "Potency": "inconclusive: 29.1 µM [activator, single point]"},
      {"molecule": "CCOC(=O)c1ccc(NC(=O)c2ccco2)cc1", "Potency": "inconclusive: 6.51 µM [activator, partial curve]"},
      {"molecule": "O=C(CCc1ccc(S(=O)(=O)N2CCOCC2)cc1)OCc1nc2ccccc2s1", "Potency": "inconclusive: 23.1 µM [activator, single point]"},
      {"molecule": "Cn1c(-c2cc3ccccc3oc2=O)nc2ccccc21", "Potency": "inconclusive: 23.1 µM [activator, single point]"},
      {"molecule": "O=C(Nc1cccc([N+](=O)[O-])c1)Nc1ccc2c(c1)CCC2", "activity change, positive = activation": "inactive: -0.774%"},
      {"molecule": "C=CCn1c(SCC(N)=O)nc2scc(-c3ccc(C)o3)c2c1=O", "Potency": "inconclusive: 9.2 µM [activator, partial curve]"},
      {"molecule": "O=C(NCc1cccs1)c1cc(-c2cccs2)on1", "Potency": "inconclusive: 5.8 µM [activator, partial curve]"},
      {"molecule": "Cc1ccc(S(=O)(=O)N2CCCC2CNC(=O)C(=O)Nc2ccc(F)cc2F)cc1", "note": "(stereo unspecified)", "activity change, positive = activation": "inactive: -2.28%"},
      {"molecule": "CC(=O)Nc1ccc(-c2csc(NCc3ccccc3)n2)cc1", "Potency": "inconclusive: 16.4 µM [activator, partial curve, poor fit]"},
      {"molecule": "CN(C(=O)c1ccco1)c1nc(-c2ccccc2)cs1", "Potency": "inconclusive: 2.06 µM [activator, partial curve, poor fit]"},
      {"molecule": "C=CCn1c(SCc2nc3cc(C(=O)OC)ccc3c(=O)[nH]2)nc2sc(CC)cc2c1=O", "activity change, positive = activation": "inactive: -0.598%"},
      {"molecule": "COc1ccc(NC(=O)/C(C#N)=C/c2ccc(Sc3nncn3C)c([N+](=O)[O-])c2)cc1", "Potency": "inconclusive: 29.1 µM [activator, single point]"},
      {"molecule": "CCCc1ccc(C(=O)NNc2ccccc2F)cc1", "Potency": "inconclusive: 16.4 µM [activator, single point]"},
      {"molecule": "COc1cc(CC(=O)OCC(=O)N2CC(=O)Nc3ccccc32)cc(OC)c1OC", "activity change, positive = activation": "inactive: -1.09%"},
      {"molecule": "COC(=O)c1ccc2c(c1O)C(=O)c1ccccc1C2=O", "Potency": "inconclusive: 6.51 µM [activator, partial curve, poor fit]"},
      {"molecule": "COc1ccc(C(=O)NCCSc2ccccc2)cc1OC", "Potency": "inconclusive: 20.6 µM [activator, partial curve, poor fit]"},
      {"molecule": "COc1ccc2nc(NC(=O)Nc3ccccc3OC)sc2c1", "Potency": "inconclusive: 1.16 µM [activator, partial curve, poor fit]"},
      {"molecule": "CN(C)/C=C1/Sc2ccccc2C1=O", "activity change, positive = activation": "inactive: -1.89%"},
      {"molecule": "CCC(C)OC(=O)c1[nH]c2c(c1C)C(=O)CC(c1ccc(N(C)C)cc1)C2", "note": "(stereo unspecified)", "Potency": "inconclusive: 2.59 µM [activator, full curve]"},
      {"molecule": "COc1ccc(-c2cc(C(=O)Nc3ccc4c(c3)OCO4)no2)cc1OC", "activity change, positive = activation": "inactive: 18.5%"},
      {"molecule": "COC(=O)CSc1ncccc1-c1nc2ccccc2[nH]1", "Potency": "inconclusive: 23.1 µM [activator, single point]"},
      {"molecule": "Cc1ccc(-n2nc3ccc(N)cc3n2)cc1C", "Potency": "active: 0.92 µM"},
      {"molecule": "COc1ccc(/C(N)=N/OC(=O)c2ccco2)cc1OC", "Potency": "inconclusive: 2.06 µM [activator, partial curve, poor fit]"},
      {"molecule": "C=CCNC(=O)c1ccc2c3n(nc2c1)-c1ccc(C)cc1CO3", "Potency": "inconclusive: 2.91 µM [activator, partial curve, poor fit]"}
    ]}
  ]
}
